Measured values from the GPR68 mutational scans of Howard et al. (2025).
Scores with a large standard error are left out. Not listed are two conditions whose scores span a narrow range. In variant names, del marks residues removed and ins residues inserted between the two positions. For part of these data: How much ogerin was present is not stated here.

B1: GPR68, Q15743 (parent)
chain: MGNITADNSSMSCTIDHTIHQTLAPVVYVTVLVVGFPANCLSLYFGYLQIKARNELGVYLCNLTVADLFYICSLPFWLQYVLQHDNWSHGDLSCQVCGILLYENIYISVGFLCCISVDRYLAVAHPFRFHQFRTLKAAVGVSVVIWAKELLTSIYFLMHEEVIEDENQHRVCFEHYPIQAWQRAINYYRFLVGFLFPICLLLASYQGILRAVRRSHGTQKSRKDQIQRLVLSTVVIFLACFLPYHVLLLVRSVWEASCDFAKGVFNAYHFSLLLTSFNCVADPVLYCFVSETTHRDLARLRGACLAFLTCSRTGRAREAYPLGAPEASGKSGAQGEEPELLTKLHPAFQTPNSPGSGGFPTGRLA

Columns and labels:
[1] = variants of: B1; test: cAMP reporter score (Enrich2 score, wild type = 0); higher = more signal; HEK293T, FACS bins
[2] = variants of: B1; test: surface expression score (Enrich2 score, wild type = 0); higher = more signal; HEK293T, FACS bins

Variant	cAMP reporter score ([1]; pH 5.5)	cAMP reporter score ([1]; pH 6)	cAMP reporter score ([1]; pH 6, modulator: ogerin)	cAMP reporter score ([1]; pH 6.5, modulator: ogerin)	surface expression score [2]
MGNITADNSSMSCTIDHTIHQTLAPVVYVTVLVVGFPANCLSIYFGYLQIKARNELGVYLCNLTVADLFYICSLPFWLQYVLQHDNWSHGDLSCQVCGILLYENIYISVGFLCCISVDRYLAVAHPFRFHQFRTLKAAVGVSVVIWAKELLTSIYFLMHEEVIEDENQHRVCFEHYPIQAWQRAINYYRFLVGFLFPICLLLASYQGILRAVRRSHGTQKSRKDQIQRLVLSTVVIFLACFLPYHVLLLVRSVWEASCDFAKGVFNAYHFSLLLTSFNCVADPVLYCFVSETTHRDLARLRGACLAFLTCSRTGRAREAYPLGAPEASGKSGAQGEEPELLTKLHPAFQTPNSPGSGGFPTGRLA [L43I]	0.667	-0.848	0.67	0.32	–
MGNITADNSSMSCTIDHTIHQTLAPVVYVTVLVVGFPANCLSKYFGYLQIKARNELGVYLCNLTVADLFYICSLPFWLQYVLQHDNWSHGDLSCQVCGILLYENIYISVGFLCCISVDRYLAVAHPFRFHQFRTLKAAVGVSVVIWAKELLTSIYFLMHEEVIEDENQHRVCFEHYPIQAWQRAINYYRFLVGFLFPICLLLASYQGILRAVRRSHGTQKSRKDQIQRLVLSTVVIFLACFLPYHVLLLVRSVWEASCDFAKGVFNAYHFSLLLTSFNCVADPVLYCFVSETTHRDLARLRGACLAFLTCSRTGRAREAYPLGAPEASGKSGAQGEEPELLTKLHPAFQTPNSPGSGGFPTGRLA [L43K]	-0.388	-0.235	-1.39	-1.07	-2.49
MGNITADNSSMSCTIDHTIHQTLAPVVYVTVLVVGFPANCLSMYFGYLQIKARNELGVYLCNLTVADLFYICSLPFWLQYVLQHDNWSHGDLSCQVCGILLYENIYISVGFLCCISVDRYLAVAHPFRFHQFRTLKAAVGVSVVIWAKELLTSIYFLMHEEVIEDENQHRVCFEHYPIQAWQRAINYYRFLVGFLFPICLLLASYQGILRAVRRSHGTQKSRKDQIQRLVLSTVVIFLACFLPYHVLLLVRSVWEASCDFAKGVFNAYHFSLLLTSFNCVADPVLYCFVSETTHRDLARLRGACLAFLTCSRTGRAREAYPLGAPEASGKSGAQGEEPELLTKLHPAFQTPNSPGSGGFPTGRLA [L43M]	1.35	0.038	1.66	0.929	-1.38
MGNITADNSSMSCTIDHTIHQTLAPVVYVTVLVVGFPANCLSNYFGYLQIKARNELGVYLCNLTVADLFYICSLPFWLQYVLQHDNWSHGDLSCQVCGILLYENIYISVGFLCCISVDRYLAVAHPFRFHQFRTLKAAVGVSVVIWAKELLTSIYFLMHEEVIEDENQHRVCFEHYPIQAWQRAINYYRFLVGFLFPICLLLASYQGILRAVRRSHGTQKSRKDQIQRLVLSTVVIFLACFLPYHVLLLVRSVWEASCDFAKGVFNAYHFSLLLTSFNCVADPVLYCFVSETTHRDLARLRGACLAFLTCSRTGRAREAYPLGAPEASGKSGAQGEEPELLTKLHPAFQTPNSPGSGGFPTGRLA [L43N]	-1.53	–	-1.64	-1.33	-3.55
